Laboratory results taken from publication PMC8586658 (Cancer Science, 2021).

Tests used:
[1] = biological target: T1, mouse IL‐2Rα on 293T cells (293Tα) (mouse, UniProt P01590 22-268); assay: binding of NanoLuc fusion proteins to cells
T1 sequence: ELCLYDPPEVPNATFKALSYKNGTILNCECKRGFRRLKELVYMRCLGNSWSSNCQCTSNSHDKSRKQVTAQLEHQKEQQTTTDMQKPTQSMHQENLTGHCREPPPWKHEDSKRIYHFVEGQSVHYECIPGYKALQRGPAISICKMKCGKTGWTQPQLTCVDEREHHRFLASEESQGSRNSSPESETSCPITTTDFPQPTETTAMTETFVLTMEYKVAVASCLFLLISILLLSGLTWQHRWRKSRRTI

[2] = biological target: T2, human IL‐2Rα on 293T cells (293Tα) (human, UniProt P01589 22-272); assay: binding of NanoLuc fusion proteins to cells
T2 sequence: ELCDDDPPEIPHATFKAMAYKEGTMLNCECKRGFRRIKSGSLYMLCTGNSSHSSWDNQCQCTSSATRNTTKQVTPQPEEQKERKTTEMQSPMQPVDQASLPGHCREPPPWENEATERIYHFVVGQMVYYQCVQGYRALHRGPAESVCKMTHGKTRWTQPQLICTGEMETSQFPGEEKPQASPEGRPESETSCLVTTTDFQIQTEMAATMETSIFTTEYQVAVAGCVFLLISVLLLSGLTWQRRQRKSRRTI

B1: MK‐0, aldesleukin‐type IL‐2 (T3A, C125A) fused to NanoLuc (ligand)
chain: not shown
[1]
  mouse 293Tα/293T ratio: 1430 ratio
[2]
  human 293Tα/293T ratio: 1730 ratio
